# Experimental data as given in article PMC5515408.
# Some of the results follow. At the low end of the ranking the order means little.
# Test system: MYC (p64) + MAX (p21), in MYC:MAX
# Test: protein-binding microarray (anti-MAX antibody)
# Conditions: PBM: 15 mM Tris-HCl pH 7.5, 100 mM KCl, 0.075% NP40, 7.5 mM beta-mercaptoethanol, 375 ng/ul BSA, 8 ng/ul poly(dA-dT):(dA-dT), 550 ng complex, 60 min, room …; high values mean tight binding; double strand, one strand shown; sequences stand for … in CCGGC…TTAATAGCTAAGATTACTATATCGACG
row,Sequence,binding signal (log2 normalized fluorescence)
1,TGACTCCGAGTA,-0.169
2,TGACGTCAGGTA,0.293
3,TGAGCGTCAGTA,0.123
4,TGATCATGAGTA,0.18
5,TGACCGGTTGTA,-0.00848
6,TGAGTACCCGTA,-0.0297
7,TGATTGAGGGTA,-0.242
8,TGATAAGTAGTA,-0.156
9,TGAGGTAGTGTA,-0.00485
10,TGATTCTCAGTA,-0.114
11,TGAGCAAATGTA,0.148
12,TGACCGCACGTA,0.325
13,TGAATAGGAGTA,-0.0183
14,TGAGAATATGTA,-0.0932
15,TGAAAGTAGGTA,-0.0375
16,TGAACTCGCGTA,0.276
17,TGAAACTAGGTA,0.0149
18,TGAGACTCAGTA,-0.0192
19,TGACGTCGAGTA,0.0982
20,TGAGAGACTGTA,0.0278
21,TGAGTGCCAGTA,0.0258
22,TGATGTCTTGTA,0.0707
23,TGAGCAGGGGTA,0.291
24,TAATACGTGGTG,0.417
25,TGACGTGGGGTA,0.437

row,Sequence,binding signal (log2 normalized fluorescence)
1,TGAAAATAAGTA,0.0845
2,TGACGGCGCGTA,0.31
3,TTCTACGAAGGA,-0.0193
4,TGAATTTTGGTA,-0.174
5,TGACTGCTCGTA,0.235
6,TGACACGTCGTT,0.391
7,TGACACAGGGTA,0.328
8,TGATTTCTTGTA,-0.0269
9,TGAGGTGCAGTA,-0.0297
10,TGATCACTTGTA,0.124
11,TGAAGTCAGGTA,0.179
12,TGAGGGCAAGTA,0.0193
13,TGGCACGGGGTA,0.559
14,TGAAGTTTAGTA,-0.00682
15,TGATGGTTAGTA,0.0867
16,TGACACACAGTA,0.471
17,TGACCAAAGGTA,0.0357
18,TGAACGCTCGTA,0.275
19,TGAGCGGGTGTA,0.195
20,TGAGCTTCCGTA,0.0481
21,TGACAATAAGTA,0.0834
22,AGACACGCGGTC,0.8
23,TGATTAACTGTA,0.0149
24,TGAGCTTACGTA,-0.218
25,TGAAGGTTAGTA,0.0121

row,Sequence,binding signal (log2 normalized fluorescence)
1,TGAAGCGCCGTA,0.0437
2,TGAATGGATGTA,0.315
3,TGACAGATGTTA,0.306
4,TGAACAGGTGTA,0.412
5,TGAAATGGAGTA,-0.0855
6,TGAGACTAAGTA,-0.139
7,TGACGGACCGTA,0.163
8,TGACAACTAGTA,0.025
9,TGATGCAAAGTA,0.107
10,TGAGAGAAAGTA,-0.0754
11,TGAAACATGGTA,0.426
12,TGAGCCATGGTA,0.0564
13,TGAAGTGGAGTA,0.0961
14,TGACAGACTGTA,0.158
15,TGACCGGACGTA,-0.023
16,GGGCACGTGGGA,0.986
17,TGAGTGCACGTA,0.34
18,TGAGTATTGGTA,-0.27
19,TGAGCACCAGTA,0.058
20,TGAATGATCGTA,0.201
21,TGAAGACATGTA,0.36
22,TGAAGTACAGTA,0.0509
23,CAACACGTTGTA,0.669
24,TGATATAATGTA,0.0653
25,TGATACGTTGTA,0.177

row,Sequence,binding signal (log2 normalized fluorescence)
1,CGATACGTGGAA,0.275
2,TGATACTCGGTA,-0.00168
3,TGATCATCGGTA,-0.054
4,TGACCTCGTGTA,0.666
5,TGACCCTCCGTA,-0.0191
6,TGACGGACGGTA,-0.132
7,TGATTGCTGGTA,0.00382
8,TGAGCTCCAGTA,-0.0291
9,TGATTTGGAGTA,-0.0299
10,TGACCCCCCGTA,0.256
11,TGACTCCCCGTA,0.234
12,TGATCGTCTGTA,0.0551
13,TGAGGGAGCGTA,0.0307
14,TCATACGTGGTA,0.558
15,TGAGCCCAAGTA,-0.266
16,TGAAGCCGAGTA,-0.000556
17,TGACTTACGGTA,0.094
18,TGATGTGTGGTA,0.187
19,TGAAACGTGGTC,0.74
20,TGAGTCGTGGTA,0.242
21,TGACACCTGTTA,0.45
22,TGAAAATTCGTA,-0.18
23,TGAGTGGCAGTA,0.306
24,TGACGTAAGGTA,0.0847
25,TGAGCCCCAGTA,-0.146

row,Sequence,binding signal (log2 normalized fluorescence)
1,TGAGATCCCGTA,0.0061
2,TGACTTATTGTA,-0.0591
3,TGAGAAAATGTA,-0.0528
4,TCTCACGTGGTC,0.836
5,TGAAGTGCTGTA,0.169
6,TGAGCATTGGTA,0.143
7,TACAGTCATGGA,0.329
8,TGAGAAAAAGTA,-0.225
9,TGTCACCTGGTC,0.45
10,TGTCTCGTGGTA,0.727
11,TGACTTTATGTA,0.138
12,TGATGACCCGTA,0.135
13,TGACAATTAGTA,0.025
14,TGAGCAGGCGTA,0.044
15,AGACACTTGGTA,0.421
16,TGAAATCCGGTA,-0.123
17,CGACACGCGGTT,0.82
18,TGAGAACAAGTA,0.121
19,TGAGACCAAGTA,0.094
20,TGACGTGGCGTA,0.38
21,TGACACGTCGTA,0.472
22,TGATTCTTCGTA,-0.0989
23,TGAGGATCAGTA,-0.0154
24,TGAAATGTGTTA,0.596
25,TGATCTACCGTA,-0.069

row,Sequence,binding signal (log2 normalized fluorescence)
1,TGATAGCATGTA,0.284
2,TGACAAAGCGTA,0.0954
3,TGAGATGACGTA,-0.00297
4,TGACTGATAGTA,0.00051
5,TGACCTACAGTA,0.193
6,TGAGCGCATGTA,0.53
7,TGATGCTATGTA,0.189
8,GAGCACGTGGTA,0.525
9,TTACACGATGTA,0.397
10,TGAGTAGCGGTA,-0.037
11,TGACACGTGAAA,0.734
12,TGACCACACGTA,0.463
13,TGAAGAGAAGTA,-0.00413
14,TGATGATTGGTA,-0.018
15,TGAGGCGACGTA,-0.0993
16,TGAGCCGCGGTA,0.0972
17,TGAGCGAGCGTA,0.0938
18,TGACAGGCCGTA,0.145
19,TGATGGTCGGTA,0.0761
20,TGACGTGTGGTA,0.252
21,TGACGACAGGTA,0.106
22,TGAGACGGTGTA,-0.0301
23,TGAACCAGGGTA,0.179
24,TTATACGTGGTA,0.309
25,TGAAGATCGGTA,0.0447

row,Sequence,binding signal (log2 normalized fluorescence)
1,TGAGACTCCGTA,0.0725
2,TGACCGTACGTA,0.139
3,TGATCTCCGGTA,-0.218
4,TGAACTAGTGTA,0.111
5,TGATTAGACGTA,-0.185
6,TGAGTACGGGTA,-0.0173
7,TGAATGATGGTA,0.341
8,TGAGAACTGGTA,-0.101
9,TGAGGCGCAGTA,0.0163
10,TGAGGATGCGTA,-0.135
11,TGATGTGCTGTA,0.323
12,TGAAAGGCCGTA,0.17
13,TGATAATTAGTA,-0.375
14,TGACATATGGTA,0.45
15,TGACTGGGCGTA,0.0251
16,TGACTAACCGTA,0.146
17,TGACGAAAGGTA,-0.0829
18,TGAAGCCGGGTA,-0.109
19,TGATGTTACGTA,0.135
20,TGACGGAACGTA,0.0765
21,TGAACGTAGGTA,0.12
22,TGAGGGAGTGTA,0.101
23,TGAGACGTGGGA,0.342
24,CGACTAGTGGTA,0.0718
25,TGACGAATGGTA,0.192
